This assay deals with NCI-H322M lung. As to the kind of experiment: DTP human tumour cell line panel, 48 h.

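48-hour exposure; five concentrations; linearly interpolated endpoints. Here, GI50 denotes the concentration required for 50% inhibition of growth. TGI: total growth inhibition.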

As to `O=C(/C=C/c1ccccc1)c1nc2ccccc2n1Cc1ccc(Br)cc1`, the GI50 is 3.23 µM and the total growth inhibition concentration (TGI) was 11.3 µM.

Consider `O=C(/C=C/c1cccc(Br)c1)c1nc2ccccc2n1Cc1ccc(F)cc1`, for which the GI50 was 13.4 µM and the TGI was found to be 50.3 µM.

As a reminder, the GI50 is the concentration giving 50% growth inhibition. A word on the TGI: it is the concentration giving total growth inhibition. The low end stands for greater sensitivity of the cells, the high end for lower sensitivity of the cells.

The values are drawn from PubChem BioAssay (NCI).
